# Measured values from PubChem BioAssay AID686971 (National Center for Advancing Translational Sciences (NCATS), 2013).
# The whole screen tested about 360,000 compounds, of which about 7,500 (2.1%) were called active. Inconclusive results, whose numbers are uncertain, are shown with a selection of clear calls. The call rests on the fitted dose curve; in most records, active means well fitted cell-killing curve with a large enough effect; inconclusive means small, poorly fitted or top-dose-only effect, or effect the other way, or another doubt; inactive means no such curve, though single readings can be large or run the other way. Potencies of inconclusive entries are left out as doubtful fits.
# Experiment: qHTS for induction of synthetic lethality in tumor cells producing 2HG: qHTS for the HT-1080-IDH1KD cell line;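 on activity, negative = toxicity: 0% = DMSO wells and -100% = cell-free medium wells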
# Conditions: HT-1080 IDH1 knockdown viability, ATP luminescence, 48 h; activity, negative = toxicity: at 46.1 µM (top of the series) unless noted
# Summary of the method: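 HT-1080-IDH1KD cells (IDH1 knocked down), 750/well in RPMI with 5% FBS, treated with compound 48 h at 37 degrees C. Viability by CellTiter-Glo luminescence, normalised to DMSO and no-cell wells; concentration-response curves classed.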
# Potency means the concentration at half of the fitted maximal effect; tags describe the fitted curve by direction and shape.
Compound,Potency,"activity, negative = toxicity"
Fc1ccccc1CN1CCCN(C(=S)Nc2cccc(Cl)c2)C1,"inconclusive [cytotoxic, single point]",–
NC(=O)C1=C[C@@H](c2csc3ccccc23)C[C@@H](OCc2ccc(CO)cc2)O1,"inconclusive [cytotoxic, single point]",–
Cc1ccc(OCc2nc(-c3ccccc3)no2)cc1,"inconclusive [rising, partial curve]",–
Cc1cc(C)c2nc(N3C(=O)C(O)=C(C(=O)c4ccco4)C3c3ccco3)sc2c1 (stereo unspecified),"inconclusive [cytotoxic, single point]",–
Cc1ccc(CCNC(=O)c2ccc3nc4ccc(Cl)cc4c(=O)n3c2)cc1,inactive,–
Cn1c(=O)c2c(nc(N/N=C/c3cccs3)n2Cc2ccc(Br)cc2)n(C)c1=O,"inconclusive [cytotoxic, partial curve]",–
CCc1cc2c(SCC(=O)NC(=O)c3cccn3C)ncnc2s1,"inconclusive [cytotoxic, partial curve]",–
CCc1ccccc1NC(=S)NC1CC2CCCC(C1)N2Cc1cccs1 (stereo unspecified),"inconclusive [cytotoxic, single point]",–
CCc1nc2ccc(C(=O)NCCC(C)C)cn2c1N(C)Cc1ccc(OC)cc1,"inconclusive [cytotoxic, single point]",–
COc1ccccc1C(=O)N/N=C(\C)c1ccc(NC(=O)Cc2ccccc2)cc1,–,inconclusive: 30.1%
O=C(CN1C(=O)NC(CCc2ccccc2)C1=O)Nc1ccc(F)c(F)c1F (stereo unspecified),inactive,–
Cc1cnc(C(=O)OCC(=O)Nc2ccccc2-c2ccccc2)cn1,"inconclusive [cytotoxic, single point]",–
CS(=O)(=O)N(CCC#N)Cc1ccc(/C=C2\C(=O)Nc3ccccc32)o1,inactive,–
CN(CC(=O)Nc1ccccc1Cl)C(=O)COC(=O)Cc1c(F)cccc1Cl,inactive,–
CCCCCn1nnnc1-c1nc2cc3ccccc3cc2[nH]c1=O,active: 7.31 µM,–
O=C(NCc1ccc2c(c1)OCO2)NC12CC3CC(CC(C3)C1)C2,inactive,–
C=CCNC(=S)NS(=O)(=O)c1cccs1,inactive,–
Cc1cc(Br)ccc1NC(=O)CCN1C(=O)c2ccncc2C1=O,inactive,–
Cc1csc(SCC(=O)Nc2ccccc2C)n1,inactive,–
COc1ccc(C)cc1S(=O)(=O)N(C)CC(=O)NC1CCCCCC1,inactive,–
O=C(O)COc1ccc(/C=N/NC(=O)c2cn(-c3ccccc3)nc2-c2ccccc2)cc1,inactive,–
COc1ccc(/C=N/NC(=O)c2cc(-c3ccccc3)nc3ccccc23)c(C(=O)O)c1OC,inactive,–
O=C(NCC1OCCc2ccccc21)C1COc2ccccc2O1 (stereo unspecified),"inconclusive [rising, partial curve]",–
Cc1cccc(Oc2nc(-c3ccccn3)nc3ccccc23)c1,active: 16.4 µM,–

Compound,Potency,"activity, negative = toxicity"
O=C1NCCc2c1[nH]c1ccc([N+](=O)[O-])cc21,"inconclusive [cytotoxic, single point]",–
CS(=O)(=O)c1ccc(Nc2nc(C(N)Cc3ccc(Cl)cc3)cs2)cc1 (stereo unspecified),"inconclusive [cytotoxic, partial curve]",–
C[C@@H]1CC[C@H]2C(=O)N3[C@@H](CC[C@@H](C)[C@@H]3c3ccc(Br)cc3)C(=O)N2[C@H]1c1ccc(Br)cc1,"inconclusive [cytotoxic, single point]",–
COc1ccc(OC)c(C2C=C(c3ccc(C)c(C)c3)Nc3nnnn32)c1 (stereo unspecified),"inconclusive [cytotoxic, full curve]",–
CCC(C)n1nnc2c(=O)oc3ccccc3c21 (stereo unspecified),inactive,–
COc1ccc2c(c1)OC[C@H]1[C@H]2N2C(=O)c3ccccc3NC(=O)[C@@]2(C)[C@H]1c1ccccc1,"inconclusive [cytotoxic, single point]",–
CCCCCNC(=O)c1cn(CC)c2cc(N3CCN(C)CC3)c(F)cc2c1=O,"inconclusive [cytotoxic, single point]",–
Cc1cccc(C(=O)NNC(=O)c2cc3cc4ccccc4nc3s2)c1,active: 20.6 µM,–
O=C1NC(Cc2ccccc2)c2nc3ccccc3c(=O)n2-c2cc3ccccc3cc21 (stereo unspecified),active: 9.2 µM,–
CCOC(=O)[C@]12CCC=C1N(Cc1ccc3c(c1)OCO3)C(=O)[C@H](CC(=O)NCCCCc1ccccc1)C2,"inconclusive [cytotoxic, single point]",–
Cc1ccc(C)c(C(=O)O/N=C(\N)c2ccc(Br)cc2)c1,"inconclusive [cytotoxic, single point]",–
COc1ccccc1N1CCN(S(=O)(=O)c2cccc3nsnc23)CC1,"inconclusive [cytotoxic, single point]",–
C=CCSC1=N/C(=C\c2cc(OCC)c(OC(C)=O)c([N+](=O)[O-])c2)C(=O)S1,inactive,–
O=C(c1ccc(S(=O)(=O)c2cccc(Cl)c2)c([N+](=O)[O-])c1)N1CCN(c2ccccn2)CC1,active: 20.6 µM,–
C(=N\N=C\c1ccncc1)/c1ccncc1,inactive,–
O=c1c2[nH]c3cccc(Cl)c3c2ncn1Cc1ccncc1,"inconclusive [cytotoxic, single point]",–
CCOc1cc(-c2nccc3cc(OC)c(OC)cc23)cc(OCC)c1OCC,"inconclusive [cytotoxic, partial curve, poor fit]",–
COc1ccc(C(=O)/C=C/C(=O)N(Cc2ccccc2OC)C(C(=O)NC2CCCCC2)c2ccncc2)c(O)c1 (stereo unspecified),"inconclusive [cytotoxic, single point]",–
N#CC1=C(N)Oc2cc3ccccc3cc2C1c1cccnc1 (stereo unspecified),active: 5.8 µM,–
CC(=O)c1cc2cccc(OC3(C)CCN(Cc4ccc5ccccc5c4)C3)c2o1 (stereo unspecified),"inconclusive [cytotoxic, single point]",–
CC(=O)/C=C\c1cn(-c2ncc(C(F)(F)F)cc2Cl)c2ccccc12,"inconclusive [cytotoxic, single point]",–
COc1cccc(COC(=O)CCNC(=O)c2ccc(Cl)cc2)c1OC,inactive,–
Cn1c(NCc2ccco2)nc2c1c(=O)n(Cc1ccc(Cl)cc1Cl)c(=O)n2C,"inconclusive [cytotoxic, single point]",–
Cc1ccc(Cn2c(C(CO)Nc3nc(-c4ccc(F)cc4)cs3)nc3ccccc32)cc1 (stereo unspecified),"inconclusive [cytotoxic, single point]",–

Compound,Potency,"activity, negative = toxicity"
Cc1c(C(=O)NCc2ccccc2CN2CCCC2)oc2c(F)cccc12,"inconclusive [cytotoxic, single point]",–
CCCn1c(CC)nc([N+](=O)[O-])c1S(=O)(=O)c1ccccc1,"inconclusive [cytotoxic, single point]",–
CC1(Cc2ccc(Cl)s2)C(=O)Nc2c(Cl)ccc(Cl)c21 (stereo unspecified),"inconclusive [cytotoxic, single point]",–
Cc1cc(C)nc(SCc2nnc(SCC(=O)O)n2-c2ccccc2)n1,inactive,–
CCOC(=O)C1=C(C)N(C)C(=O)NC1c1c(C)nn(-c2ccc(C)cc2)c1Cl (stereo unspecified),"inconclusive [cytotoxic, partial curve]",–
Cc1cccc(-n2cc[nH]c2=S)c1,"inconclusive [rising, single point]",–
O=C(O)c1cc2ccc(O)cc2oc1=O,inactive,–
COc1ccc(/C=N/NC(=O)CCn2c3ccccc3c3ccccc32)cc1O,"inconclusive [cytotoxic, partial curve]",–
Cc1ccccc1-c1cc(C(=O)NCc2ccc(OC(F)(F)F)cc2)n(CC2CC(c3cccnc3)=NO2)n1 (stereo unspecified),inactive,–
CN(CCC#N)C(=O)COC(=O)c1ccccc1OCc1ccccc1Cl,inactive,–
Cc1ccc(C)c(S(=O)(=O)Nc2cc(SCC(=O)O)c(O)c3ccccc23)c1,active: 18.4 µM,–
CC(/C=C/c1ccc(N(C)C)cc1)=N\N=C1\NC(=O)CC(C(=O)Nc2ccccc2)S1 (stereo unspecified),"inconclusive [cytotoxic, single point]",–
COc1ccc(-c2[nH]c(-c3ccc(SC)cc3)nc2SCC(=O)Nc2nccs2)cc1,"inconclusive [cytotoxic, single point]",–
CCc1ccccc1NC(=S)NCCSc1ccc(Cl)cc1,"inconclusive [cytotoxic, single point]",–
O=C(CNC(=O)c1cccc(F)c1)N/N=C/c1cc(Br)ccc1OCc1ccccc1,inactive,–
CCOc1cccc(-c2cc(C(=O)N3N=C(C)CC3(O)C(F)F)c3ccccc3n2)c1 (stereo unspecified),inactive,–
Cc1cccc(C)c1OCCCCc1c(C)n[nH]c1C,"inconclusive [cytotoxic, single point]",–
CCOC(=O)N1CCN(C(=O)C[C@@H]2C[C@@]3(C(=O)OCC)CCCC=C3N(CCC3=CCCCC3)C2=O)CC1,"inconclusive [cytotoxic, single point]",–
COc1cc([N+](=O)[O-])cc(/C=N/NC(=O)c2cc(C)nc3ccccc23)c1O,active: 13 µM,–
CC(C)c1ccc(/C=C/C(=O)Nc2ccc(CN3CCOCC3)cc2)cc1,"inconclusive [cytotoxic, single point]",–
COCc1cc(CN2CCCC(C(=O)Nc3ccc(-c4ccco4)cc3)C2)ccc1OC (stereo unspecified),"inconclusive [cytotoxic, single point]",–
O=S(=O)(c1ccc(Cl)cc1)N1CCN(Cc2ccc(O)c3ncccc23)CC1,"inconclusive [cytotoxic, partial curve]",–
Cc1cc(NC(=O)CS(=O)c2cn(Cc3cccc(Cl)c3)c3ccccc23)no1 (stereo unspecified),"inconclusive [cytotoxic, single point]",–
